# Reference: publication PMC4336329 (PLoS ONE, 2015)
# In all, about 310,000 compounds went through this assay and about 14,000 (4.5%) showed an effect of 50% or more. The effect is printed as a negative number. Some of the results follow.
# Biological target: human ether-à-go-go-related gene (hERG) potassium channel (human, UniProt Q12809)
# Experiment: primary screen, population patch clamp on CHO cells stably expressing hERG
# 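Further: peak tail current of the secondary pulse compared with the same well before compound.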
# human ether-à-go-go-related gene (hERG) potassium channel, sequence (Q12809 whole entry, looked up): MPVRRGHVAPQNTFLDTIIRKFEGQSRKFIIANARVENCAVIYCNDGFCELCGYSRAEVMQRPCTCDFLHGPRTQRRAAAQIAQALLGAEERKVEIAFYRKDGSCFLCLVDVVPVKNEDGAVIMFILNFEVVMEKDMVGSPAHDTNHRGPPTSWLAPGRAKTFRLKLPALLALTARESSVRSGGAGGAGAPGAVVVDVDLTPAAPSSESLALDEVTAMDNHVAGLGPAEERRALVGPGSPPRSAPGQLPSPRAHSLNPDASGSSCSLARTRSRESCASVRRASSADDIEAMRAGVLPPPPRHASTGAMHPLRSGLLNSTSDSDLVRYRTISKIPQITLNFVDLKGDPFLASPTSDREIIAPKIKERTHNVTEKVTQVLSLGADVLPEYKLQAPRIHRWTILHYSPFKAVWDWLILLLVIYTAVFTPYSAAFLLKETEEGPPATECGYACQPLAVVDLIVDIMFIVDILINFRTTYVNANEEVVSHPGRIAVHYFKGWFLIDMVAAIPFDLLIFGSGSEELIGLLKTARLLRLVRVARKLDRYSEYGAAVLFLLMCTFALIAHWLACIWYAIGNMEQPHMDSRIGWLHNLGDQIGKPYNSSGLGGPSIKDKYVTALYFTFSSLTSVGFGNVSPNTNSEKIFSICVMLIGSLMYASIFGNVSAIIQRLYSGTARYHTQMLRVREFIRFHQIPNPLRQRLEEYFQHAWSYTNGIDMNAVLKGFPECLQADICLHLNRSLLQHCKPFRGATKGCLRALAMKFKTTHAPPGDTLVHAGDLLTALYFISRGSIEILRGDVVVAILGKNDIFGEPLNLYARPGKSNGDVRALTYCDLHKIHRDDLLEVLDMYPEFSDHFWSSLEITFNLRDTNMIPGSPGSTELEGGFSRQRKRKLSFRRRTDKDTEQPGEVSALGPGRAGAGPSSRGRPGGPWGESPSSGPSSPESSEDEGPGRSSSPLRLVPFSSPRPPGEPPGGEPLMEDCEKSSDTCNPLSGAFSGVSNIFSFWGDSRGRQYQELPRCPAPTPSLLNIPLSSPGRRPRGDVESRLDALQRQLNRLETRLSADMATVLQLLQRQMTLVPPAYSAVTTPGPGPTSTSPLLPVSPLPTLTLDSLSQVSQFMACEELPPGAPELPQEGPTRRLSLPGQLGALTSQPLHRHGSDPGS
row,Structure (SMILES),"hERG current change (%, negative = inhibition) at 10uM"
1,COc1cc(C(=O)NCc2nnc(SCC(=O)Nc3c(C)cc(C)cc3C)o2)cc(OC)c1OC,14.4%
2,Cc1cc(C)cc(NC(=O)c2cccc(NC(=O)c3ccco3)c2)c1,-25.4%
3,Cc1cc(C(=O)CSC(C)c2nc3ccccc3c(=O)[nH]2)c(C)n1C (stereo not drawn),5.72%
4,COc1ccc(-c2nonc2NC(=O)c2oc3ccc(F)cc3c2C)cc1OC,13.8%
5,O=C(NCC(=O)N1CCCC1)c1cccs1,-5.03%
6,O=C(NC1CCCCC1)c1cc(F)cc2c1OCOC2,7.49%
7,CC(C)C1C(C#N)=C(N)SC(N)=C1C#N,14.9%
8,O=C(CN(c1ccccn1)S(=O)(=O)c1ccc(F)cc1)Nc1ccc(F)cc1F,2.34%
9,S=C1Nc2ccccc2Sc2ccc(Cl)cc21,-3.77%
10,CCOC(=O)CSc1nc2sc3c(c2c(=O)n1-c1ccc(OC)cc1)CCN(C)C3,-5.76%
11,CCCn1cc(CN2CCCC(C(=O)c3cccc(OC(C)C)c3)C2)c(C)n1 (stereo not drawn),-35.5%
12,O=c1ccccn1Cc1ccccc1F,16.4%
13,Cc1ccc(-c2csc3nc(C(C)C)oc(=O)c23)c(C)c1,16.9%
14,COC(=O)c1ccc(C(=O)OC)c(NC(=O)CN(C)Cc2ccc(Cl)c(Cl)c2)c1,5.46%
15,Cc1ccc(C(C(=O)NCc2ccccc2)N(C(=O)c2csnn2)C2CC2)cc1 (stereo not drawn),-6.35%
16,Nc1c2c(nc3ccc(Br)cc13)N(C1CCCCC1)CC2.O=C(O)C(=O)O,-70.1%
17,CC(=O)c1ccc(NC(=O)c2ccc(N3C(=O)c4cccnc4C3=O)cc2)cc1,2.38%
18,COc1ccccc1-n1c(SCC(=O)NC2CCS(=O)(=O)C2)nc2cc([N+](=O)[O-])ccc21 (stereo not drawn),-16.2%
19,O=C(CSc1nc2ccccc2c(=O)[nH]1)N1CCN(c2ccccc2)CC1,14.1%
20,CC1CCCCC12NC(=O)N(CC(=O)NCC(=O)Nc1ccc(F)c(F)c1F)C2=O (stereo not drawn),8.7%
21,O=C(NCCN1CCN(c2cccc(Cl)c2)CC1)C1CCCN(S(=O)(=O)c2cnc[nH]2)C1 (stereo not drawn),-3.12%
22,O=C(CC(c1cccs1)S(=O)(=O)c1ccccc1)c1ccc(F)cc1 (stereo not drawn),9.53%
23,Cc1cc(C)c(S(=O)(=O)c2cccc(Br)c2C)c(=O)[nH]1,18.4%
24,CC(C)(C)OC(=O)N1CCOCCOCCNCCOCCOCC1,6.98%
